Measured values reported in PMC10726135.
This is one part of the list. At the low end of the ranking, values are background and their order means little. Measured with an extract: partners may take part in the binding.

What follows are sequences tested against T1, HNF4alpha8 (COS-7 nuclear extract) (UniProt P41235-5) (assay: protein-binding microarray). Conditions: COS-7 nuclear extract on double-stranded Agilent 4x180k PBM; binding buffer, salt, pH and temperature not given; high values mean tight binding; double strand, one strand shown; sequences stand for … in …GCCTAGGGAGATTAGAGTATCGGTCGA.
T1 sequence: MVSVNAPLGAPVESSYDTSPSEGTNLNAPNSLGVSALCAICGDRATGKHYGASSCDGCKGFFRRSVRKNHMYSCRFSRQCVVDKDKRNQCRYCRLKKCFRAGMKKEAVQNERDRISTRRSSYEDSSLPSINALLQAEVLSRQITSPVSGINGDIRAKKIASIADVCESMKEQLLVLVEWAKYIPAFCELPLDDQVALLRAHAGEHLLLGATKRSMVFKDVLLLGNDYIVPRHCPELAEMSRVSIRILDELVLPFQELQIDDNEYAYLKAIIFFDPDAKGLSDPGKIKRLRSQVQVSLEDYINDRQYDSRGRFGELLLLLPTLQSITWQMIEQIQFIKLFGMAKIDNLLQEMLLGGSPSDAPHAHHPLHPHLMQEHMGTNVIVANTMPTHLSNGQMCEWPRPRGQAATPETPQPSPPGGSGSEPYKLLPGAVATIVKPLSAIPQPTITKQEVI
For ATGTCTTTCTGGCTGGAGAGGAGGTTATCT, the binding signal (log2 normalized intensity) was 0.88. Sequence CTGCCTCCCATCTTGCAGCTGACCCTGGCC has a binding signal (log2 normalized intensity) of 3.39. Sequence GCCCAGCATGCCCCGCGCCGCGTCCCTTCC has a binding signal (log2 normalized intensity) of 1.32. Work on AGCCGTCTGGTAAATTTCTAACACTCCCCA yielded a binding signal (log2 normalized intensity) of 2.15. TTATAAACTTGTTTGGGATTAAAGGATCAA gave a binding signal (log2 normalized intensity) of 1.11. For GTCTCATTGCCCCTTGAGCTAAATAATTAC, the binding signal (log2 normalized intensity) was 2.29. With ACTTCATCTAAGTGGGTCTAGGTTCTGGGG the binding signal (log2 normalized intensity) was 1.03. Sequence GGAGCCACTGCAGCTTTCTGAGTAGGACAG has a binding signal (log2 normalized intensity) of -1.25. In the case of AGTCGACCCTCTCTGGATGCAGGTCGCCGG, the binding signal (log2 normalized intensity) is reported as 0.398. For TCTGTTAGGAATGTCATGCAGCTAAAAGCA, the binding signal (log2 normalized intensity) was -1.37. ATGCATTCCATATGGATTAAATCTTGTTGG showed a binding signal (log2 normalized intensity) of 0.559. TCAGTCCAATTCACAGAACTCCCTAAGTGG showed a binding signal (log2 normalized intensity) of -1.24. TCTGACTGCACTGCAATGACAATAAATTAT gave a binding signal (log2 normalized intensity) of -1.32. Sequence TTAAGGGCAAAGGTTACAATTGTCCCCAAG has a binding signal (log2 normalized intensity) of 5.54. Work on CGCATTTCTGCTTCTTCTCATTCTTGGAAT yielded a binding signal (log2 normalized intensity) of 1.49. GTGCAACAGGAGCCCAGAGACAGTGGAATC showed a binding signal (log2 normalized intensity) of -1.27. For TAATCTGGCTCCAAAGTCTATGTGTGCTTT, the binding signal (log2 normalized intensity) was 2.41. Work on TGTCACACACAGACTTGGGTTCAAAGAGCA yielded a binding signal (log2 normalized intensity) of 4.78. Work on AGGGTGACCCCTGTGGTACAGGCAGTGACT yielded a binding signal (log2 normalized intensity) of 2.06. TTGGGGTCAAGGCCTTTAAGAAGTAGGTGT was tested, and the binding signal (log2 normalized intensity) was 1.03. For CAGTTTGAAATTAGGCAATATGAGTAGAGC, the binding signal (log2 normalized intensity) was -1.23. In the case of AAAACTCAGATTCCTATGGTAAATGAATAG, the binding signal (log2 normalized intensity) is reported as -1.3. ACTCCAACTCAGCCCCCAGCATTATGAAAT was tested, and the binding signal (log2 normalized intensity) was 5.05. GTCACGTGGCTGCTGAGAGGATTAAAAGAT was tested, and the binding signal (log2 normalized intensity) was -1.29. Work on GTAACAGGCCAAAGGGCAAGAACAATCTTG yielded a binding signal (log2 normalized intensity) of 2.83. With CTTTGAAGCCCAGAACACTCTACCCCCTCC the binding signal (log2 normalized intensity) was 4.95. TCAAAGAATGCCTGGGTCAAATTGGTGCTT showed a binding signal (log2 normalized intensity) of 1.01. For GCTGCTCAGCTGCCTAGAGGCCTGGGAATG, the binding signal (log2 normalized intensity) was -1.21. TTTTCTAGCTGAGTTGACCTGTGTTGACAG was tested, and the binding signal (log2 normalized intensity) was 3.38. With ACTCAGGAAAGATCAGCTGAAAACTATGCA the binding signal (log2 normalized intensity) was -1.33. Work on AAACCAGCAGTATCTTTGTGTCACCAATGG yielded a binding signal (log2 normalized intensity) of 0.739. For ACTTAGGGTTCAAAGGTTGTTGAGCACACA, the binding signal (log2 normalized intensity) was 5.57. ATACCTAGCTGTTTGCAGGGACAATGGATG gave a binding signal (log2 normalized intensity) of -0.0318. GGAGGGGGCGGTTAAACATTCAGATTCCTG showed a binding signal (log2 normalized intensity) of -1.32. Sequence GAATGCCTGGGTCAAATTGGTGCTTTCATC has a binding signal (log2 normalized intensity) of 0.56. Work on TTGTATGGTTTTGTGCTAGAAAGAATGAGA yielded a binding signal (log2 normalized intensity) of 1.25. In the case of CCACAAAGTCTTAGCTCATTTCAGCCTTAA, the binding signal (log2 normalized intensity) is reported as -0.902. CCCCTTTTAATACAAGTATTATCTTCCATT showed a binding signal (log2 normalized intensity) of 0.547. ATGCCGGCGTGACCCCCACTGCCTGCCTGC was tested, and the binding signal (log2 normalized intensity) was 4.1. With GCCAAAGTTCAACCATACACACATTCCAAT the binding signal (log2 normalized intensity) was 1.03. With GCTAATCCTACTTTATCTAAGTAAACTAGT the binding signal (log2 normalized intensity) was -0.793. Sequence GCCCTAGGAATCCTGACCAGGGGCCAGCAA has a binding signal (log2 normalized intensity) of -1.26. GTCCCACCTGAGGCCAAGCAGCTGTGATGA showed a binding signal (log2 normalized intensity) of -0.794. For CGGCTGAGCGGCCTTCGCACCTGCCTGTCT, the binding signal (log2 normalized intensity) was 0.936. TCCTTTTTGGCCAGCCCCGGGAATTCTGGG gave a binding signal (log2 normalized intensity) of -1.44. For GAGGCTTATTCCGTACAAGGATTCATTTCC, the binding signal (log2 normalized intensity) was -1.28. Work on CCGCACAGTGCAAACACACAATATTGACAT yielded a binding signal (log2 normalized intensity) of -1.26. Sequence GAGATCAGAGGAGGCACTTGTCTCACATCT has a binding signal (log2 normalized intensity) of -1.14. AGGCATTTCTGGAATTCTCTTCCCAACAGG was tested, and the binding signal (log2 normalized intensity) was -1.27. With GGCTAATTACATCCAGAGTGGGACAAAGTT the binding signal (log2 normalized intensity) was -0.0774. GGGTCATTAATTCCCAGGAATTGGCCTGTG gave a binding signal (log2 normalized intensity) of 0.7. TGGAAGAAGCGGTTCTGCAGGTTCATGGGA gave a binding signal (log2 normalized intensity) of 1.02. With ACCACTCTTTCAGGGTGGGAAAGGAATGTA the binding signal (log2 normalized intensity) was -1.15. CTTTGAACCAGATGGCCCTCTCCAAGGCGG was tested, and the binding signal (log2 normalized intensity) was -1.27. Work on AAAAAAAAAAAAAAGGCAGTCCTTAGATCC yielded a binding signal (log2 normalized intensity) of -1.34. Work on TTTCCAGTTAGGCAGGATGGGGTCATGATA yielded a binding signal (log2 normalized intensity) of 3.09. CCCAAGTAGAGAGCAGTCCTGCACATGAAT showed a binding signal (log2 normalized intensity) of -1.54. For AGACAGGAGTAGTCAAATTTGTCTAGCGCA, the binding signal (log2 normalized intensity) was -1.26. For CTTTCATGCCGGCGTGACCCCCACTGCCTG, the binding signal (log2 normalized intensity) was 4.74. ATTGCAGACAGCATAGGAAGTGGGGAAGAA gave a binding signal (log2 normalized intensity) of -1.34. With TTTTAATTAGAACTGTAATTGAGTAACCAG the binding signal (log2 normalized intensity) was 0.406. Sequence GAACTTTGATCAGCATTCAAATGAGGGCAG has a binding signal (log2 normalized intensity) of 3.89. With CCTGTGGCCACAGAGCGCCTAACTATTTTG the binding signal (log2 normalized intensity) was -1.36. GATCACCTGGTGGCCATCAAGCAGATCATC was tested, and the binding signal (log2 normalized intensity) was -1.37. Sequence TTTCTTTCTTTTCCCAAACCACGTTTCTGT has a binding signal (log2 normalized intensity) of 1.02. With CCTGGGAATGCCTAGGGGGAAGCCCCTGCT the binding signal (log2 normalized intensity) was -1.49. For CCAAGAGCTTAACCTTTGCCATGTGACAAT, the binding signal (log2 normalized intensity) was 2.73. AGATTACAGCCACATGCTAACACACCTGGC showed a binding signal (log2 normalized intensity) of -1.35. CACTCATGGTGTTTGCTTTGTGAAGGCTTA showed a binding signal (log2 normalized intensity) of 0.417. With GTCTCTTCCACCTGGAATGCACTTGTTCCG the binding signal (log2 normalized intensity) was 0.812. CTCCTGCAGACCCTATTGGGCTAGCCGCTC gave a binding signal (log2 normalized intensity) of -1.36. For TCTTACTGTGTTGTCGTATTTACTCTAGAA, the binding signal (log2 normalized intensity) was 1.21. AAGTCTGTTTATCCTGCCTCCATTAATTAA was tested, and the binding signal (log2 normalized intensity) was 0.448. GCCTCCCCCTTCTGAGTCTCCAATGTCCAT gave a binding signal (log2 normalized intensity) of 2.63. With AAGGTTAGGGGGATTCTGGCTAAACCAGCC the binding signal (log2 normalized intensity) was -1.43. Sequence CCTGTCAGTCTCTCAATGATTGACAGGTTA has a binding signal (log2 normalized intensity) of 0.739. CAGGAATATCAACAGGAGCAAATATCGCTT showed a binding signal (log2 normalized intensity) of -1.3. Work on GGCTGGGGCCCTCTTCCAGCTGAGACAAGG yielded a binding signal (log2 normalized intensity) of -1.35. In the case of GTATATCCTGACACAGGAAGGGGGATGTCT, the binding signal (log2 normalized intensity) is reported as -1.17. For CTTATCATGCTGTCTCTGAAAGCAAACAAT, the binding signal (log2 normalized intensity) was -1.21. Work on AGGAGCAGGAGCAGAAGCAGGCCTCGGGCC yielded a binding signal (log2 normalized intensity) of -1.29. GCCAAGGGCAGTGTTTGCCCAGCTTGAATC was tested, and the binding signal (log2 normalized intensity) was -0.771. In the case of CGGGCACTGATAACGCCCGCCTAACCTTGA, the binding signal (log2 normalized intensity) is reported as -1.2. In the case of GGGAATGTGGGTCCACATTCCTGATGCTAG, the binding signal (log2 normalized intensity) is reported as 0.702. CAGCTTATCTGTCCATCCCTCACTCCTGTC was tested, and the binding signal (log2 normalized intensity) was -0.642. TCCAACCCACAGGGGTAGAAGCTGAGCAGC showed a binding signal (log2 normalized intensity) of -1.3. In the case of TGCTTGTGTTGGAGCATTAGTTGACCATTG, the binding signal (log2 normalized intensity) is reported as 2.21. Work on CAAACTATAGATTTGTGATGAGAATAAATT yielded a binding signal (log2 normalized intensity) of 0.644. In the case of CTTAGGGAGGGTGAAGGTCACAATTTCCAG, the binding signal (log2 normalized intensity) is reported as 3.2. ACTGAGGCTCAATGAGGTCAATAGTCCAGA gave a binding signal (log2 normalized intensity) of 5.04. Sequence CTTATCAGCAGCTGGGGTGACTGATTGGAG has a binding signal (log2 normalized intensity) of 0.845. For CTAGCAAAAATCCTGCCAAACCAGTTCAAC, the binding signal (log2 normalized intensity) was -1.39. TTACTCACCTGATTCAATGTCTGGAAGTTC was tested, and the binding signal (log2 normalized intensity) was 1.38.
